The record followed here is patent publication US20230293647A1.

A word on the Kd: it is a measure of binding affinity in units of concentration. One may read the koff as a measure of how fast the partners let go of each other. As usually defined, the kon is a measure of how fast the partners come together. Low readings indicate slower complex formation, high ones faster complex formation.

Assay [1] deals with Angiotensin II (UniProt P01019). Kind of assay: SPR, 1:1 binding kinetic model. In general terms: Surface plasmon resonance follows binding to a sensor surface in real time, without labels.
Assay [2] shares this target. Briefly: SPR, ACE2-Fc captured on Protein A, angiotensin II as analyte, 1:1 Langmuir fit.

In assay [1], “Inactive ACE2 (HH:NN) ([…])-Fc (chain not printed) (Fc fusion)” had a fold reduction in affinity against active ACE2-Fc of 11 fold. In assay [2], this substance registered a Kd of 1300 nM, a koff of 0.18 s⁻¹ and an on-rate (kon) of 138000 M⁻¹ s⁻¹.
